# Results published in paper PMC9911399, “Two distinct binding modes provide the RNA-binding protein RbFox with extraordinary sequence specificity”.
# Positions count from the first letter of the chain named. Some of the results follow.
# T1: RBFOX1 RRM RbFoxmut (Fox-RRM*) (Homo sapiens, UniProt Q9NWB1 109-208, R118D;E147R;N151S;E152T)
# T1 sequence: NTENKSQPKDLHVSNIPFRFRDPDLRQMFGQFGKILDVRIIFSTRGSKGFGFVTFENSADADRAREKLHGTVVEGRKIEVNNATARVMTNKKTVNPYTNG
# B1: UAGCCCA (DNA:RNA)
# RNA: GGGAGACCGGAAUUCAGAUUGUCCUAGCCCAUUAAAUCCCGUCGUAGCCACCA
# DNA 1: CAATCTGAATTCCGGTCTCCC
# DNA 2: TGGTGGCTACGACGGGATT
# B2: AAAGUCC (DNA:RNA)
# RNA: B1 RNA with U25A, G27A, C28G, C29U, A31C
# DNA 1: CAATCTGAATTCCGGTCTCCC
# DNA 2: TGGTGGCTACGACGGGATT
# B3: UGCAAUC (DNA:RNA)
# RNA: B1 RNA with A26G, G27C, C28A, C29A, C30U, A31C
# DNA 1: CAATCTGAATTCCGGTCTCCC
# DNA 2: TGGTGGCTACGACGGGATT
# B4: ACAUUGA (DNA:RNA)
# RNA: B1 RNA with U25A, A26C, G27A, C28U, C29U, C30G
# DNA 1: CAATCTGAATTCCGGTCTCCC
# DNA 2: TGGTGGCTACGACGGGATT
# B5: GUACUAA (DNA:RNA)
# RNA: B1 RNA with U25G, A26U, G27A, C29U, C30A
# DNA 1: CAATCTGAATTCCGGTCTCCC
# DNA 2: TGGTGGCTACGACGGGATT
# B6: AGGGCAC (DNA:RNA)
# RNA: B1 RNA with U25A, A26G, C28G, C30A, A31C
# DNA 1: CAATCTGAATTCCGGTCTCCC
# DNA 2: TGGTGGCTACGACGGGATT
# B7: GAUGGAC (DNA:RNA)
# RNA: B1 RNA with U25G, G27U, C28G, C29G, C30A, A31C
# DNA 1: CAATCTGAATTCCGGTCTCCC
# DNA 2: TGGTGGCTACGACGGGATT
# B8: UGGACAA (DNA:RNA)
# RNA: B1 RNA with A26G, C28A, C30A
# DNA 1: CAATCTGAATTCCGGTCTCCC
# DNA 2: TGGTGGCTACGACGGGATT
# B9: GAAUGCA (DNA:RNA)
# RNA: B1 RNA with U25G, G27A, C28U, C29G
# DNA 1: CAATCTGAATTCCGGTCTCCC
# DNA 2: TGGTGGCTACGACGGGATT
# B10: CGGAAGU (DNA:RNA)
# RNA: B1 RNA with U25C, A26G, C28A, C29A, C30G, A31U
# DNA 1: CAATCTGAATTCCGGTCTCCC
# DNA 2: TGGTGGCTACGACGGGATT
# B11: GUCAUGC (DNA:RNA)
# RNA: GGGAGACCGGAAUUCAGAUUGUCCGUCAUGCUUAAAUCCCGUCGUAGCCACCA
# DNA 1: CAATCTGAATTCCGGTCTCCC
# DNA 2: TGGTGGCTACGACGGGATT
# B12: GGUAUAC (DNA:RNA)
# RNA: B11 RNA with U26G, C27U, G30A
# DNA 1: CAATCTGAATTCCGGTCTCCC
# DNA 2: TGGTGGCTACGACGGGATT
# B13: UUAGUUU (DNA:RNA)
# RNA: B11 RNA with G25U, C27A, A28G, G30U, C31U
# DNA 1: CAATCTGAATTCCGGTCTCCC
# DNA 2: TGGTGGCTACGACGGGATT
# B14: GAGACAA (DNA:RNA)
# RNA: B1 RNA with U25G, C28A, C30A
# DNA 1: CAATCTGAATTCCGGTCTCCC
# DNA 2: TGGTGGCTACGACGGGATT
# B15: CUCUAAA (DNA:RNA)
# RNA: B11 RNA with G25C, A28U, U29A, G30A, C31A
# DNA 1: CAATCTGAATTCCGGTCTCCC
# DNA 2: TGGTGGCTACGACGGGATT
# B16: GAGGUAA (DNA:RNA)
# RNA: B1 RNA with U25G, C28G, C29U, C30A
# DNA 1: CAATCTGAATTCCGGTCTCCC
# DNA 2: TGGTGGCTACGACGGGATT
# B17: UCGAGCC (DNA:RNA)
# RNA: B1 RNA with A26C, C28A, C29G, A31C
# DNA 1: CAATCTGAATTCCGGTCTCCC
# DNA 2: TGGTGGCTACGACGGGATT
# B18: CGAUCAU (DNA:RNA)
# RNA: B1 RNA with U25C, A26G, G27A, C28U, C30A, A31U
# DNA 1: CAATCTGAATTCCGGTCTCCC
# DNA 2: TGGTGGCTACGACGGGATT
# B19: UGAUAAU (DNA:RNA)
# RNA: B1 RNA with A26G, G27A, C28U, C29A, C30A, A31U
# DNA 1: CAATCTGAATTCCGGTCTCCC
# DNA 2: TGGTGGCTACGACGGGATT
# B20: GAGACCU (DNA:RNA)
# RNA: B1 RNA with U25G, C28A, A31U
# DNA 1: CAATCTGAATTCCGGTCTCCC
# DNA 2: TGGTGGCTACGACGGGATT
# B21: GCCGAUA (DNA:RNA)
# RNA: B11 RNA with U26C, A28G, U29A, G30U, C31A
# DNA 1: CAATCTGAATTCCGGTCTCCC
# DNA 2: TGGTGGCTACGACGGGATT
# B22: UCUGCCG (DNA:RNA)
# RNA: B1 RNA with A26C, G27U, C28G, A31G
# DNA 1: CAATCTGAATTCCGGTCTCCC
# DNA 2: TGGTGGCTACGACGGGATT
# B23: CCUAGGU (DNA:RNA)
# RNA: B11 RNA with G25C, U26C, C27U, U29G, C31U
# DNA 1: CAATCTGAATTCCGGTCTCCC
# DNA 2: TGGTGGCTACGACGGGATT
# B24: AACUCGC (DNA:RNA)
# RNA: B11 RNA with G25A, U26A, A28U, U29C
# DNA 1: CAATCTGAATTCCGGTCTCCC
# DNA 2: TGGTGGCTACGACGGGATT
# B25: AGCUAUA (DNA:RNA)
# RNA: B11 RNA with G25A, U26G, A28U, U29A, G30U, C31A
# DNA 1: CAATCTGAATTCCGGTCTCCC
# DNA 2: TGGTGGCTACGACGGGATT
# B26: UUGAAUA (DNA:RNA)
# RNA: B1 RNA with A26U, C28A, C29A, C30U
# DNA 1: CAATCTGAATTCCGGTCTCCC
# DNA 2: TGGTGGCTACGACGGGATT
# B27: GUGUAUG (DNA:RNA)
# RNA: B11 RNA with C27G, A28U, U29A, G30U, C31G
# DNA 1: CAATCTGAATTCCGGTCTCCC
# DNA 2: TGGTGGCTACGACGGGATT
# B28: GUAGUUU (DNA:RNA)
# RNA: B11 RNA with C27A, A28G, G30U, C31U
# DNA 1: CAATCTGAATTCCGGTCTCCC
# DNA 2: TGGTGGCTACGACGGGATT
# B29: AAGGACG (DNA:RNA)
# RNA: B1 RNA with U25A, C28G, C29A, A31G
# DNA 1: CAATCTGAATTCCGGTCTCCC
# DNA 2: TGGTGGCTACGACGGGATT
# B30: CGGAUCC (DNA:RNA)
# RNA: B11 RNA with G25C, U26G, C27G, G30C
# DNA 1: CAATCTGAATTCCGGTCTCCC
# DNA 2: TGGTGGCTACGACGGGATT
# B31: AGGCGGA (DNA:RNA)
# RNA: B1 RNA with U25A, A26G, C29G, C30G
# DNA 1: CAATCTGAATTCCGGTCTCCC
# DNA 2: TGGTGGCTACGACGGGATT
# Molecular target: T1, RBFOX1 RRM RbFoxmut (Fox-RRM*)
# Assay: EMSA; HiTS-Eq, 1 nM pool, 10 min; buffer printed only for the single-RNA assays: 10 mM Tris pH 7.5, 150 mM NaCl, 3.4 mM EDTA, 0.001% NP-40, 30 C
# Conditions: tags: His6 N-terminal (pET28a); label: 5' 32P
# Method in brief: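 Relative association constants, normalised to the cognate motif, were derived by comparing read counts of each RNA species with those of the control reaction. The RNA sequenced was the free fraction, separated by 8% native PAGE after a 10 min equilibration in 50 µL of 1 nM 5′-radiolabelled RNA (7 randomized nucleotides) with increasing concentrations of purified wild-type or mutant RbFox RRM.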
row,Binder,binding signal
1,B1,0.0818 KA relative to UGCAUGU
2,B2,0.0663 KA relative to UGCAUGU
3,B3,0.102 KA relative to UGCAUGU
4,B4,0.118 KA relative to UGCAUGU
5,B5,0.102 KA relative to UGCAUGU
6,B6,0.0707 KA relative to UGCAUGU
7,B7,0.0517 KA relative to UGCAUGU
8,B8,0.0543 KA relative to UGCAUGU
9,B9,1.03 KA relative to UGCAUGU
10,B10,0.0941 KA relative to UGCAUGU
11,B11,0.19 KA relative to UGCAUGU
12,B12,0.0792 KA relative to UGCAUGU
13,B13,0.103 KA relative to UGCAUGU
14,B14,0.0523 KA relative to UGCAUGU
15,B15,0.0846 KA relative to UGCAUGU
16,B16,0.103 KA relative to UGCAUGU

row,Binder,binding signal
1,B17,0.154 KA relative to UGCAUGU
2,B18,0.0818 KA relative to UGCAUGU
3,B19,0.0819 KA relative to UGCAUGU
4,B20,0.0622 KA relative to UGCAUGU
5,B21,0.11 KA relative to UGCAUGU
6,B22,0.0615 KA relative to UGCAUGU
7,B23,0.0979 KA relative to UGCAUGU
8,B24,0.0897 KA relative to UGCAUGU
9,B25,0.14 KA relative to UGCAUGU
10,B26,0.132 KA relative to UGCAUGU
11,B27,1.38 KA relative to UGCAUGU
12,B28,0.128 KA relative to UGCAUGU
13,B29,0.0532 KA relative to UGCAUGU
14,B30,0.114 KA relative to UGCAUGU
15,B31,0.12 KA relative to UGCAUGU
